In PMC4336329 (PLoS ONE, 2015):
Out of some 310,000 compounds screened, about 2,200 (0.71%) showed an effect of 50% or more. The effect is printed as a negative number. The list shows a part of the results.

These compounds were tested against human ether-à-go-go-related gene (hERG) potassium channel (human, UniProt Q12809) (assay: primary screen, population patch clamp on CHO cells stably expressing hERG).
Chain of human ether-à-go-go-related gene (hERG) potassium channel (Q12809 whole entry, looked up): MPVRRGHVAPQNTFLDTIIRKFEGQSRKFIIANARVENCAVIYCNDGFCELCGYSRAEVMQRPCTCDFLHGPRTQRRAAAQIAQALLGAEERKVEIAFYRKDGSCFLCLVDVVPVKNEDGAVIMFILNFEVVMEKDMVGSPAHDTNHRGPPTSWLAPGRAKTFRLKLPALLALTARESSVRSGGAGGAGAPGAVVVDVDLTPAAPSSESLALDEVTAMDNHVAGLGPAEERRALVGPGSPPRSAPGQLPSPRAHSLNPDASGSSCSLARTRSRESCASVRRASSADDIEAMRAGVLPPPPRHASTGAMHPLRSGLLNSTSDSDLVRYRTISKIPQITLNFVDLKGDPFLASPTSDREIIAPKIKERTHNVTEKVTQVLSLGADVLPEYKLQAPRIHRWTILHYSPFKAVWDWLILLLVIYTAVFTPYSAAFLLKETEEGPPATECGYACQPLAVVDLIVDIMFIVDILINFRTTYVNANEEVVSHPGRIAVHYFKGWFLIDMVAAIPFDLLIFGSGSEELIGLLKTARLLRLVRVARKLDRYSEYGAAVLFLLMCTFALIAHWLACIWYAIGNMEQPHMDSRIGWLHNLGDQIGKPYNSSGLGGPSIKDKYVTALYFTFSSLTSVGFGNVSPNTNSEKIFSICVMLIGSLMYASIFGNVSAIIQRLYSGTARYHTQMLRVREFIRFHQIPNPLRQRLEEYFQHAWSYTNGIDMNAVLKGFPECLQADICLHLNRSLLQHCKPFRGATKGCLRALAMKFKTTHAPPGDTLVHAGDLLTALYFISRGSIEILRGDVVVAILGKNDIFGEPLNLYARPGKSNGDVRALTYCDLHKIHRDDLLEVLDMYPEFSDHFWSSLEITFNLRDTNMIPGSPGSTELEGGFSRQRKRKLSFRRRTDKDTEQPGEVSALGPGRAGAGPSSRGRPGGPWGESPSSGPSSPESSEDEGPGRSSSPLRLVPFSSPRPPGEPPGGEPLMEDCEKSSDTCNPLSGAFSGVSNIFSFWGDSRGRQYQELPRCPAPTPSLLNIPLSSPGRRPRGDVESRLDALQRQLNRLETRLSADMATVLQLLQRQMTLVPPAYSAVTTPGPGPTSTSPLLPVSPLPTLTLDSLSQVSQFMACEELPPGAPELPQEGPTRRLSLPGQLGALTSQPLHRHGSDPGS

Compound	hERG current change (%, negative = inhibition) at 1uM [%]
Cc1c(C(=O)N2CCCCC2)c(S(=O)(=O)NCc2ccccc2Cl)c(C)n1C	11
NNc1nc2c(-c3cccc(C(F)(F)F)c3)nnn2c2ccccc12	15.4
COc1cc2c(cc1N/C=C(\C#N)c1nc(-c3ccc(F)cc3)cs1)oc1ccccc12	-15.6
CCn1cc(S(=O)(=O)NCc2ccc(OC)cc2)cn1	5.26
COc1ccc(S(=O)(=O)N(C)c2ccc(C(=O)Nc3cccnc3)cc2)cc1	9.96
CCCn1c(=O)c2c(nc3n2CCCN3CCc2ccc(OC)c(OC)c2)n(C)c1=O	0.562
Cc1cc(N2C(=O)C=CC2=O)c([N+](=O)[O-])cc1C	-3.92
O=C(N/N=C1\CCCc2ccccc21)c1cccc([N+](=O)[O-])c1	-1.15
O=C(N/N=C/c1ccc2nccnc2c1)c1cccc([N+](=O)[O-])c1	8.28
COc1ccc(OC)c(CNC(=O)C2CCN(S(=O)(=O)N3CCCCC3)CC2)c1	5.55
O=C(NCC1CCCO1)c1ccc2c(=O)n(CC3CCCO3)c(=S)[nH]c2c1 (stereo not drawn)	12.2
Cc1cc(=O)[nH]c(N/N=C/C2=C(N3CCOCC3)C(=C\c3ccc(Cl)cc3)/CC2)n1	9.83
COc1ccc(OC)c(-n2c(-c3cc(-c4ccccc4)n[nH]3)n[nH]c2=S)c1	13.9
COc1ccc(S(=O)(=O)NCCS(=O)(=O)N2CCN(c3ccccc3)CC2)cc1	1.73
CCn1c(CNC(=O)c2ccccc2F)nnc1SCC(=O)NC1CCCCC1	-6.46
CCOC(=O)CSc1nc2ccccc2c(=O)n1CCC(=O)NCCc1ccc(OC)c(OC)c1	-1.71
COc1ccc(CCNC(=O)CSc2nc3ccccc3c3nc(CCN4CCCCC4)nn23)cc1OC	4.4
Fc1cccc(COc2ccccc2CNc2ccccc2)c1	11.2
NC1=NC(=O)S/C1=C\c1ccc(F)cc1	13.6
CSc1nnc(-c2ccc(S(=O)(=O)N3CCCCC3)cc2)o1	14.4
Cc1cccc(C)c1NC(=O)C1C2C=CC(C2)C1C(=O)NCc1ccccn1 (stereo not drawn)	3.15
Cn1c(Cn2c(=O)sc3ccccc32)nnc1SCC(=O)Nc1ccc(F)cc1	11.6

Compound	hERG current change (%, negative = inhibition) at 1uM [%]
O=C(CC1C(=O)NCCN1C(=O)Nc1ccccc1)Nc1cc(Cl)ccc1Cl (stereo not drawn)	6.94
NC(=O)CC(NC(=O)Cc1ccc(Cl)cc1)c1ccc(NC2CCN(Cc3ccccc3)CC2)c([N+](=O)[O-])c1 (stereo not drawn)	7.83
O=C(NCCc1ccccc1C(F)(F)F)C1CCC(=O)N(CCCN2CCCC2=O)C1 (stereo not drawn)	12.2
COc1cc(OC)cc(C(=O)N2CCC(n3c(C)nc4cc(F)ccc43)CC2)c1	-23.9
O=C(CCNC(=O)c1ccc(Br)o1)NCc1ccc(Cl)cc1	8.17
CCc1nc(SCC(=O)Nc2ccc3c(c2)OCCO3)c2oc3ccccc3c2n1	10.2
CCCN1CCC(=O)N([C@H](CSc2ccccc2)Cc2ccccc2)CC1	-48.9
CCOc1ccc(OCC(=O)Nc2cc3c(cc2C(=O)O)OCCCO3)cc1	14.5
O=C1OCc2cc(NC(=O)C3CCCO3)ccc21 (stereo not drawn)	7.76
COc1ccc(C(=O)NCCCN2CCOCC2)cc1S(=O)(=O)N1CCCc2ccccc21	-12.2
N#CC1(NC(=O)COC(=O)c2nc(Cl)ccc2Cl)CCCCC1	-0.321
CCCCNC(=O)CCCCCNS(=O)(=O)c1ccc(OC)cc1	6.89
O=C(CN1CCCCCC1)NC(c1ccccc1)c1ccccc1.O=C(O)C(=O)O	-31.7
Cc1cccc2cc(C#N)c(SCc3nnc(-c4ccccc4[N+](=O)[O-])o3)nc12	10.9
COc1ccc(NC2c3ccccc3C(=O)N2c2cccnc2)cc1Cl (stereo not drawn)	-3
Cc1nc2ccccc2c(=O)n1NC(=O)c1ccco1	11.8
Cc1cc(NC(=O)CSc2nnc(-c3cccc(Cl)c3)o2)no1	13.1
CC(Cc1ccccc1Sc1ccccc1)N(C)C.O=C(O)/C=C\C(=O)O (stereo not drawn)	-60.6
Cc1csc2c(N3CCN(C(=O)Nc4ccc(OC(F)(F)F)cc4)CC3)ncnc12	11.1
COC(=O)Cc1cc(=O)[nH]c(/N=C(\N)Nc2cccc(C)c2)n1	13.6
O=C1c2ccccc2C(=O)N1CCCC(=O)N1CCCc2ccccc21	-2
C=CCNC(=O)CN(c1ccccc1OCC)S(=O)(=O)c1ccc(C)cc1	14.3

Compound	hERG current change (%, negative = inhibition) at 1uM [%]
Cc1cccc(NC(=O)CSc2nc3ccccc3o2)c1	14.7
Cc1c(C(=O)c2ccccc2)c2ccccn2c1CCc1ccccn1	7.11
NC(=O)c1ccc(SCC(=O)OCC(=O)NCc2ccco2)c([N+](=O)[O-])c1	10.7
Cl.O=C(O)C1CCN(Cc2ccccn2)CC1	13.4
CC1CCN(S(=O)(=O)c2ccc(NC(=O)Cc3ccc(S(=O)(=O)N4CCOCC4)s3)cc2)CC1	-2.89
C/C(CC(=O)Nc1cccc(F)c1)=N\NC(=O)C(=O)NC1CCCCC1	11.3
COCCn1c(SCc2ccc(OC)c(F)c2)nnc1-c1ccncc1	9.13
COc1ccc(OC)c(NC(=O)CSc2nnc(CNC(=O)c3cccs3)o2)c1	5.55
Cc1ccc(C(=O)NCCCN2CCOCC2)o1	22.1
COCc1cc(=O)n2[nH]c(C)cc2n1	10.1
CC(=O)c1c(OC(=O)c2ccccc2Br)ccc2c(C)cc(=O)oc12	0.622
COc1ccccc1N(CC(=O)NCC1CCCO1)C(=O)CCC(=O)Nc1cc(C)on1 (stereo not drawn)	11.3
CCCCCOC(=O)C1C2C=CC3(CN(c4ccccc4C)C(=O)C13)O2 (stereo not drawn)	17.3
Cc1cc(NCc2ccccc2)n2ncc(-c3ccccc3)c2n1	4.22
Cn1c(Cn2c(=O)sc3ccccc32)nnc1SCC(=O)NC1CCCC1	10.1
Cc1cc(NC(=O)COc2coc(CN3CCN(c4ccccc4)CC3)cc2=O)no1	-1.27
COC(=O)C1=C(C)NC(C)=C(C(=O)OC)C1c1ccc2ccccc2n1	13.6
Nc1nnc(/C=C/c2ccccc2Cl)s1	13.7
COc1ccc(CCNC(=O)c2ccc(OC)c(OC)c2)cc1OC	8.73
COc1ccc(Cc2noc(CN3CCN(Cc4csc(C)n4)CC3)n2)cc1OC	9.32
CC(O)CCc1ccc(O)cc1 (stereo not drawn)	8.47
Cc1ccc(/C=N\NC(=O)Cn2nnc3ccccc32)o1	1.65

Compound	hERG current change (%, negative = inhibition) at 1uM [%]
O=C(Nc1cc(C(F)(F)F)ccc1N1CCCCC1)c1ccc(Br)o1	13.4
COc1ccc(C(=O)NC(C)c2nnc(SCC(=O)NC3=NCCS3)n2C)cc1 (stereo not drawn)	11.7
COc1ccc(N2C(=O)/C(=C\c3ccco3)N=C2SCC(N)=O)cc1Cl	13.5
COC(=O)C(C(=O)OC)C(CC(=O)c1ccc(C)cc1)c1cc(OC)c(OC)c(OC)c1 (stereo not drawn)	4.78
CCN1C(=O)[C@@H]2[C@H](C1=O)[C@@H]1C(=O)Nc3ccccc3C(=O)N1[C@@H]2c1ccc(Br)cc1	-17.7
[Cl-].c1ccc(C[n+]2cccc(-c3ccccc3)c2)cc1	-3.61
O=C1N[C@@H](Cc2ccccc2)[C@@H](c2ccco2)O1	13.2
CCn1c(NCc2ccco2)nc2ccccc21	10.6
COc1ccc(C2=NN(C(=O)CCC(=O)O)C(c3ccc(F)cc3)C2)cc1 (stereo not drawn)	15.9
O=C(CCCN1C(=O)c2cccc3cccc(c23)C1=O)N1CCN(c2ncccn2)CC1	14.4
Cc1ccccc1-c1nnc(-c2ccccc2)o1	-0.417
CCOCCCNC(=S)NNC(=O)CCn1nc(C)c(Br)c1C	11.1
COc1ccccc1N1CCN(C(c2cc3cc(C)ccc3[nH]c2=O)c2nnnn2C2CCCC2)CC1 (stereo not drawn)	-1.27
CCOc1ccc(N2CC(C(=O)Nc3c(C)n(C)n(-c4ccccc4)c3=O)CC2=O)cc1 (stereo not drawn)	17.3
CN(CC(=O)NC1CCCC1)S(=O)(=O)c1cnc[nH]1	12.9
S=C(NCCc1ccccc1)NC1CCCCCC1	-1.53
COC(=O)c1ccccc1COn1c(=O)c[n+]([O-])c2ccccc21	3.05
Cc1nnc(SCc2nc3sc4c(c3c(=O)[nH]2)CCCC4)n(N)c1=O	15.9
COc1ccc(-c2cc(C(=O)Nc3cccnc3Cl)no2)cc1OC	16.7
Nc1nc(NC2CCCCC2)nc(NCCO)c1[N+](=O)[O-]	7.41
CC(C)(CN1CCNCC1)NS(=O)(=O)c1ccc(Cl)cc1	1.19
